# Where “and” joins values, the source holds several entries; their conditions need not be identical. Equal values may be shown once. In all, about 2,900 compounds were measured (“IRF Lucia reporter activity, fold change vs agonist alone”: median about 0.9, highest 2% from about 2.8 on). This is one part of the list.
# Tests used:
# [1] = tested on: RAW-Dual; test: IRF Lucia reporter activity, fold change vs agonist alone; higher = enhanced IRF activity; settings: agonist: MPLA (TLR4) […]
# Procedure, shortened: (§1)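 Cytotoxic wells were those whose IncuCyte confluency was below 70% of agonist controls in both mask sets. The cells were RAW-Dual macrophages at 50,000 cells/well in DMEM on 384-well plates, dosed with 50 nL of library stock by pin tool, stimulated with a PRR agonist 1 h later, and kept at 37 °C, 5% CO2 for 20 hours. IRF and NF-κB reporter activity, as fold change over agonist-alone wells, came from supernatant read by QuantiLuc luminescence and QuantiBlue absorbance, respectively.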
# [2] = tested on: RAW-Dual; test: IRF Lucia reporter activity, fold change vs agonist alone; cytotoxicity flag (confluency mask): not cytotoxic; higher = enhanced IRF activity
# Procedure, shortened: as §1
# [3] = tested on: RAW-Dual; test: IRF Lucia reporter activity, fold change vs agonist alone; cytotoxicity flag (confluency mask): cytotoxic (confluency <70% of control); higher = enhanced IRF activity
# Procedure, shortened: as §1
# [4] = library stock concentration (final ~1000-fold dilution): 10 mM water, cytotoxicity flag (confluency mask): not cytotoxic
# [5] = agonist: 3'3'-cGAMP (STING) 10 ug/mL
# [6] = library stock concentration (final ~1000-fold dilution): 10 mM, cytotoxicity flag (confluency mask): cytotoxic (confluency <70% of control)
# [7] = library stock concentration (final ~1000-fold dilution): 10 mM, cytotoxicity flag (confluency mask): not cytotoxic
smiles,measurement,setting,value
CCCC(=O)[O-].[Na+],IRF Lucia reporter activity,[1]; [4],1.27
CCCC(=O)[O-].[Na+] (library stock concentration (final ~1000-fold dilution): 10 mM water),IRF Lucia reporter activity,[2]; [5],1.12
same,IRF Lucia reporter activity,[2]; agonist: LPS (TLR4) 0.1 ug/mL,0.83
COCCOc1ccc2c(c1)ncn2-c1ccc2cccc(N3CCC(N)CC3)c2n1 (library stock concentration (final ~1000-fold dilution): 10 mM),IRF Lucia reporter activity,[3]; [5],0.0214
same,IRF Lucia reporter activity,[3]; agonist: LPS (TLR4) 0.1 ug/mL,0.0272
COCCOc1ccc2c(c1)ncn2-c1ccc2cccc(N3CCC(N)CC3)c2n1,IRF Lucia reporter activity,[1]; [6],0.0201
CCCS(=O)(=O)NC1CC(N(C)c2ncnc3[nH]ccc23)C1 (stereo unspecified) (library stock concentration (final ~1000-fold dilution): 10 mM),IRF Lucia reporter activity,[2]; [5],0.331
same,IRF Lucia reporter activity,[2]; agonist: LPS (TLR4) 0.1 ug/mL,0.508
Cc1cc(Nc2cc(N3CCN(C)CC3)nc(/C=C/c3ccccc3)n2)n[nH]1,IRF Lucia reporter activity,[1]; [6],0.0174
Cc1cc(Nc2cc(N3CCN(C)CC3)nc(/C=C/c3ccccc3)n2)n[nH]1 (library stock concentration (final ~1000-fold dilution): 10 mM),IRF Lucia reporter activity,[3]; [5],0.0105
same,IRF Lucia reporter activity,[3]; agonist: LPS (TLR4) 0.1 ug/mL,0.0236
Cc1nc(C#Cc2ccnc(Cl)c2)c(C)n1-c1ccc(OC(F)(F)F)cc1,IRF Lucia reporter activity,[1]; [6],1.3
Cc1nc(C#Cc2ccnc(Cl)c2)c(C)n1-c1ccc(OC(F)(F)F)cc1 (library stock concentration (final ~1000-fold dilution): 10 mM),IRF Lucia reporter activity,[3]; [5],0.355
same,IRF Lucia reporter activity,[3]; agonist: LPS (TLR4) 0.1 ug/mL,0.642
CN(C)c1cccc(-c2c3c(=O)n(-c4ccccc4Cl)[nH]c3cc(=O)n2C)c1,IRF Lucia reporter activity,[1]; [7],1.05
CN(C)c1cccc(-c2c3c(=O)n(-c4ccccc4Cl)[nH]c3cc(=O)n2C)c1 (library stock concentration (final ~1000-fold dilution): 10 mM),IRF Lucia reporter activity,[2]; [5],0.903
same,IRF Lucia reporter activity,[2]; agonist: LPS (TLR4) 0.1 ug/mL,0.593
CCCCOc1nc(N)c2c(n1)N(Cc1cccc(CN3CCCC3)c1)CC(=O)N2 (library stock concentration (final ~1000-fold dilution): 1 mM),IRF Lucia reporter activity,[2]; [5],1.33
same,IRF Lucia reporter activity,[2]; agonist: LPS (TLR4) 0.1 ug/mL,1.29
COC(=O)C1=C(C)NC(C)=C(C(=O)OCCN(C)Cc2ccccc2)C1c1cccc([N+](=O)[O-])c1 (stereo unspecified) (library stock concentration (final ~1000-fold dilution): 10 mM),IRF Lucia reporter activity,[2]; [5],0.307
same,IRF Lucia reporter activity,[2]; agonist: LPS (TLR4) 0.1 ug/mL,1.51
COC(=O)C1=C(C)NC(C)=C(C(=O)OCCN(C)Cc2ccccc2)C1c1cccc([N+](=O)[O-])c1 (stereo unspecified),IRF Lucia reporter activity,[1]; [7],1.14
CC(=O)SC1CC2=CC(=O)CCC2(C)C2CCC3(C)C(CCC34CCC(=O)O4)C12 (stereo unspecified) (library stock concentration (final ~1000-fold dilution): 10 mM),IRF Lucia reporter activity,[2]; [5],0.862
same,IRF Lucia reporter activity,[2]; agonist: LPS (TLR4) 0.1 ug/mL,0.791
CC(=O)SC1CC2=CC(=O)CCC2(C)C2CCC3(C)C(CCC34CCC(=O)O4)C12 (stereo unspecified),IRF Lucia reporter activity,[1]; [7],0.825
CN(C)C(=O)COC(=O)Cc1ccc(OC(=O)c2ccc(NC(=N)N)cc2)cc1.CS(=O)(=O)O (library stock concentration (final ~1000-fold dilution): 10 mM),IRF Lucia reporter activity,[2]; [5],1.03
same,IRF Lucia reporter activity,[2]; agonist: LPS (TLR4) 0.1 ug/mL,1.16
CN(C)C(=O)COC(=O)Cc1ccc(OC(=O)c2ccc(NC(=N)N)cc2)cc1.CS(=O)(=O)O,IRF Lucia reporter activity,[1]; [7],1.1
O=c1cc(-c2ccc(O)cc2)oc2cc(O)ccc12 (library stock concentration (final ~1000-fold dilution): 10 mM),IRF Lucia reporter activity,[2]; [5],0.732
same,IRF Lucia reporter activity,[2]; agonist: LPS (TLR4) 0.1 ug/mL,0.812
CN(C/C=C/C#CC(C)(C)C)Cc1cccc2ccccc12.Cl (library stock concentration (final ~1000-fold dilution): 10 mM),IRF Lucia reporter activity,[2]; [5],1.25
same,IRF Lucia reporter activity,[2]; agonist: LPS (TLR4) 0.1 ug/mL,1.2
CN(C/C=C/C#CC(C)(C)C)Cc1cccc2ccccc12.Cl,IRF Lucia reporter activity,[1]; [7],1.21
CC1(C)CNc2cc(NC(=O)c3cccnc3NCc3ccncc3)ccc21 (library stock concentration (final ~1000-fold dilution): 10 mM),IRF Lucia reporter activity,[2]; agonist: LPS (TLR4) 0.1 ug/mL,0.645 and 0.698
CC(=O)Oc1cc2c(cc1Cl)C(c1ccccc1C(=O)O)c1cc(Cl)c(OC(C)=O)cc1O2 (library stock concentration (final ~1000-fold dilution): 10 mM),IRF Lucia reporter activity,[2]; [5],0.728
same,IRF Lucia reporter activity,[2]; agonist: LPS (TLR4) 0.1 ug/mL,1.15
COCCn1c2c([n+](Cc3cnccn3)c1C)C(=O)c1ccccc1C2=O,IRF Lucia reporter activity,[1]; [6],0.0332
COCCn1c2c([n+](Cc3cnccn3)c1C)C(=O)c1ccccc1C2=O (library stock concentration (final ~1000-fold dilution): 10 mM),IRF Lucia reporter activity,[3]; [5],0.0183
same,IRF Lucia reporter activity,[3]; agonist: LPS (TLR4) 0.1 ug/mL,0.0223
O=C1Cc2c([nH]c3ccc(Br)cc23)-c2ncccc2N1 (library stock concentration (final ~1000-fold dilution): 10 mM),IRF Lucia reporter activity,[2]; [5],0.282
same,IRF Lucia reporter activity,[2]; agonist: LPS (TLR4) 0.1 ug/mL,0.268
O=C1Cc2c([nH]c3ccc(Br)cc23)-c2ncccc2N1,IRF Lucia reporter activity,[1]; [7],0.212
COc1ccc2cc(OCC3(C(=O)O)CN(C(=O)c4ccc(F)cc4)C3)ccc2c1,IRF Lucia reporter activity,[1]; [7],1.18
COc1ccc2cc(OCC3(C(=O)O)CN(C(=O)c4ccc(F)cc4)C3)ccc2c1 (library stock concentration (final ~1000-fold dilution): 10 mM),IRF Lucia reporter activity,[2]; [5],1.04
same,IRF Lucia reporter activity,[2]; agonist: LPS (TLR4) 0.1 ug/mL,1.14
COC(=O)C1=C(C)NC(C)=C(C(=O)OCC(C)C)C1c1ccccc1[N+](=O)[O-] (stereo unspecified),IRF Lucia reporter activity,[1]; [7],0.508
COC(=O)C1=C(C)NC(C)=C(C(=O)OCC(C)C)C1c1ccccc1[N+](=O)[O-] (stereo unspecified) (library stock concentration (final ~1000-fold dilution): 10 mM),IRF Lucia reporter activity,[2]; [5],0.585
same,IRF Lucia reporter activity,[2]; agonist: LPS (TLR4) 0.1 ug/mL,0.872
N=C(N)NCCCC(N)C(=O)NC(CCCNC(=N)N)C(=O)NC(CCCNC(=N)N)C(=O)NC(CCCNC(=N)N)C(=O)NC(CCCNC(=N)N)C(=O)NC(CCCNC(=N)N)C(=O)NC(CCCNC(=N)N)C(=O)NC(CCCNC(=N)N)C(=O)NC(CCCNC(=N)N)C(=O)NC(CS)C(=O)NC(CCC(N)=O)C(=O)NC(CS)C(=O)NC(CCCNC(=N)N)C(=O)NC(CCCNC(=N)N)C(=O)NC(CCCCN)C(=O)NC(CC(N)=O)C(=O)O (stereo unspecified) (library stock concentration (final ~1000-fold dilution): 10 mM water),IRF Lucia reporter activity,[2]; [5],0.977
same,IRF Lucia reporter activity,[2]; agonist: LPS (TLR4) 0.1 ug/mL,0.488
C(#Cc1nc2ncccc2nc1OCCN1CCCC1)c1ccccc1 (library stock concentration (final ~1000-fold dilution): 10 mM),IRF Lucia reporter activity,[3]; [5],0.0185
same,IRF Lucia reporter activity,[3]; agonist: LPS (TLR4) 0.1 ug/mL,0.0176
C(#Cc1nc2ncccc2nc1OCCN1CCCC1)c1ccccc1,IRF Lucia reporter activity,[1]; [6],0.0252
CCC(C)CC(C)CCCCCCCCC(=O)NC1CC(O)C(NCCN)NC(=O)C2C(O)CCN2C(=O)C(C(O)CCN)NC(=O)C(C(O)C(O)c2ccc(O)cc2)NC(=O)C2CC(O)CN2C(=O)C(C(C)O)NC1=O (stereo unspecified) (library stock concentration (final ~1000-fold dilution): 10 mM water),IRF Lucia reporter activity,[2]; [5],0.923
same,IRF Lucia reporter activity,[2]; agonist: LPS (TLR4) 0.1 ug/mL,0.909
CCC(C)CC(C)CCCCCCCCC(=O)NC1CC(O)C(NCCN)NC(=O)C2C(O)CCN2C(=O)C(C(O)CCN)NC(=O)C(C(O)C(O)c2ccc(O)cc2)NC(=O)C2CC(O)CN2C(=O)C(C(C)O)NC1=O (stereo unspecified),IRF Lucia reporter activity,[1]; [4],1.21
CC(=O)ON=C1C(c2c(O)[nH]c3cc(Br)ccc23)=Nc2ccccc21 (library stock concentration (final ~1000-fold dilution): 10 mM),IRF Lucia reporter activity,[2]; [5],0.948
same,IRF Lucia reporter activity,[2]; agonist: LPS (TLR4) 0.1 ug/mL,0.0378
CC(C(=O)O)c1ccc(C(=O)c2cccs2)cc1 (stereo unspecified) (library stock concentration (final ~1000-fold dilution): 10 mM),IRF Lucia reporter activity,[2]; [5],1.14
same,IRF Lucia reporter activity,[2]; agonist: LPS (TLR4) 0.1 ug/mL,1.07
CC(C(=O)O)c1ccc(C(=O)c2cccs2)cc1 (stereo unspecified),IRF Lucia reporter activity,[1]; [7],0.796
CN1CCN(c2nc(C3=C(c4c[nH]c5ccccc45)C(=O)NC3=O)c3ccccc3n2)CC1 (library stock concentration (final ~1000-fold dilution): 10 mM),IRF Lucia reporter activity,[3]; [5],0.0964
same,IRF Lucia reporter activity,[3]; agonist: LPS (TLR4) 0.1 ug/mL,0.337
CN1CCN(c2nc(C3=C(c4c[nH]c5ccccc45)C(=O)NC3=O)c3ccccc3n2)CC1,IRF Lucia reporter activity,[1]; [6],0.385
COc1cc2ncnc(Nc3ccc(F)c(Cl)c3)c2cc1OCCCN1CCOCC1,IRF Lucia reporter activity,[1]; [6],0.922
COc1cc2ncnc(Nc3ccc(F)c(Cl)c3)c2cc1OCCCN1CCOCC1 (library stock concentration (final ~1000-fold dilution): 10 mM),IRF Lucia reporter activity,[3]; [5],0.703
same,IRF Lucia reporter activity,[3]; agonist: LPS (TLR4) 0.1 ug/mL,0.943
CN1CCN(Cc2ccc(NC(=O)Nc3ccc(Oc4ccnc(N)n4)cc3)cc2C(F)(F)F)CC1 (library stock concentration (final ~1000-fold dilution): 10 mM),IRF Lucia reporter activity,[3]; [5],0.0139
same,IRF Lucia reporter activity,[3]; agonist: LPS (TLR4) 0.1 ug/mL,0.0154
CC[N+](CC)(CC)CCOc1cccc(OCC[N+](CC)(CC)CC)c1OCC[N+](CC)(CC)CC (library stock concentration (final ~1000-fold dilution): 10 mM),IRF Lucia reporter activity,[2]; [5],0.993
same,IRF Lucia reporter activity,[2]; agonist: LPS (TLR4) 0.1 ug/mL,1.07
CC[N+](CC)(CC)CCOc1cccc(OCC[N+](CC)(CC)CC)c1OCC[N+](CC)(CC)CC,IRF Lucia reporter activity,[1]; [7],1
CSCCNc1nc(SCCC(F)(F)F)nc2c1ncn2C1OC(COP(=O)(O)OP(=O)(O)C(Cl)(Cl)P(=O)(O)O)C(O)C1O (stereo unspecified) (library stock concentration (final ~1000-fold dilution): 10 mM water),IRF Lucia reporter activity,[2]; [5],1.33
same,IRF Lucia reporter activity,[2]; agonist: LPS (TLR4) 0.1 ug/mL,1.03
CSCCNc1nc(SCCC(F)(F)F)nc2c1ncn2C1OC(COP(=O)(O)OP(=O)(O)C(Cl)(Cl)P(=O)(O)O)C(O)C1O (stereo unspecified),IRF Lucia reporter activity,[1]; [4],1.4
Cn1cc(-c2ccc(S(=O)(=O)n3ccc(/C=C/C(=O)Nc4ccccc4N)c3)cc2)cn1 (library stock concentration (final ~1000-fold dilution): 10 mM),IRF Lucia reporter activity,[3]; [5],0.0173
same,IRF Lucia reporter activity,[3]; agonist: LPS (TLR4) 0.1 ug/mL,0.578
Cn1cc(-c2ccc(S(=O)(=O)n3ccc(/C=C/C(=O)Nc4ccccc4N)c3)cc2)cn1,IRF Lucia reporter activity,[1]; [6],0.681
CCc1oc2ccccc2c1C(=O)c1cc(Br)c(O)c(Br)c1 (library stock concentration (final ~1000-fold dilution): 10 mM),IRF Lucia reporter activity,[2]; [5],1.05
same,IRF Lucia reporter activity,[2]; agonist: LPS (TLR4) 0.1 ug/mL,0.956
CCc1oc2ccccc2c1C(=O)c1cc(Br)c(O)c(Br)c1,IRF Lucia reporter activity,[1]; [7],1.06
